Source: PubChem BioAssay AID1346428 (National Center for Advancing Translational Sciences (NCATS), 2018)
“And” between values parts separate entries of the source, which are not always exact repeats. Identical values can stand only once. Out of some 48,000 compounds screened, about 1,200 (2.5%) were called active. Not shown: some 2% with an inconclusive outcome.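 How the source made its calls: active means activation of at least 60% and not above a set upper limit (about 1 call in 100 departs from these limits); inconclusive means activation of 40% to 60%, or above that upper limit; inactive means activation under 40%.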 The list shows a part of the results.

target: Probable G-protein coupled receptor 32 (Homo sapiens) (UniProt O75388); test: qHTS for Agonists of Human Resolvin D1 Receptor DRV1; conditions: CHO-K1 GPR32 beta-arrestin PathHunter luminescence, 90 min; at 76.9 µM; stronger effect = higher value; zero percent set by DMSO-only wells; further: 0% is about no effect
Sequence of UniProt O75388 (O75388 whole entry, looked up): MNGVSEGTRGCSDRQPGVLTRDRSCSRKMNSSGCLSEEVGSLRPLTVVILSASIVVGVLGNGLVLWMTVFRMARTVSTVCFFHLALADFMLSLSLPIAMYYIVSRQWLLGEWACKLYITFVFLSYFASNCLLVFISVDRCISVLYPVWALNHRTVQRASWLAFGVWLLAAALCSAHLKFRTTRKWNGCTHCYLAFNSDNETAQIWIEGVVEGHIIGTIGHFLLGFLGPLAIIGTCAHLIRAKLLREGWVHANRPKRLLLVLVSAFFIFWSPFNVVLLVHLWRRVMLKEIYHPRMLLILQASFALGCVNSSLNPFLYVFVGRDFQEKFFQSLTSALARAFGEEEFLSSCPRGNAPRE
Outline: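 Engineered CHO-K1 line co-expressing GPR32-ProLink and EA-beta-arrestin. Compound treatment lasted 90 min at 37 °C. Luminescence was recorded after 1 h with substrate at ambient temperature, relative to DMSO basal wells.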

activation, active:
O=C(Cn1nnnc1-c1ccccc1F)Nc1ccc(OC(F)(F)F)cc1 75.1%
CN1C[C@H]2c3ccccc3Oc3ccc(Cl)cc3[C@@H]2C1 91.8%

activation, inactive:
CCOc1ccc(NC(=O)Cn2cnc3sc(C)c(S(=O)(=O)N4CCN(c5ccccc5OC)CC4)c3c2=O)cc1 -5.41%
COc1ccc(NC(=O)c2ccco2)cc1NC(=O)C(C)(C)Oc1ccc(Cl)cc1 -13.6%
Cc1nn2c(C)c(C(=O)NC(C)c3ccccc3)cnc2c1-c1ccc(F)cc1 (stereo unspecified) -4.67%
Cc1cccc(C)c1-n1ncc(C(=O)O)c1C1CCN(C(=O)OC(C)(C)C)CC1 14.7%
COc1ccc(C)cc1NC(=O)c1cc2c(=O)n3cccc(C)c3nc2s1 2.37%
CCC(=O)N1CCCc2cc(S(=O)(=O)N3CCC(C(=O)NCc4ccc(F)cc4)CC3)ccc21 5.66%
COc1ccc(Cl)cc1NC(=O)c1cn(C2CCCC2)c(=O)c2c1c1ccccc1n2C -3.82%
Cc1cccc(N(CC(=O)Nc2ccccc2C(F)(F)F)S(=O)(=O)c2ccccc2)c1C -2.07%
O=C(NCC(c1cccs1)S(=O)(=O)c1ccccc1)c1ccc(C(F)(F)F)cc1 (stereo unspecified) -6.18%
COc1ccc(OC)c(C2CC(=O)Oc3c2c(=O)n(C)c2ccccc32)c1 (stereo unspecified) 0.96%
O=C(Nc1ccc(F)cc1)c1ccc2c(=O)n3c(nc2c1)CCCCC3 -11.4%
COCCCNC(=O)CSc1nc2c(sc3ccccc32)c(=O)n1CCc1ccc(OC)c(OC)c1 -12.3%
Cc1cc(Cl)ccc1OCC(=O)N(Cc1ccco1)Cc1ccccc1F -13.4%
COc1ccc(CNC(=O)CSc2ncc3c(n2)-c2ccc(Cl)cc2N(Cc2ccccc2)S3(=O)=O)cc1 11.7%
CN(C)CCNC(=O)Cn1ccc2cc(S(=O)(=O)N3CCCCCC3)ccc21 8.99%
Cc1cccc(Cn2c(-c3cccc(Br)c3)nc3ccccc32)c1 -38.4%
COc1ccccc1C(=O)NC1(C(F)(F)F)C(=O)Nc2c1c(=O)[nH]c(=O)n2-c1ccc(F)cc1 (stereo unspecified) -7.04%
COc1ccc(CNC(=O)CCc2c(C)nc3c(c(C)nn3-c3ccccc3)c2C)cc1 2.44%
CCOC(=O)c1c(C)n(-c2ccc(OC)cc2)c2ccc(OC(=O)COc3ccccc3)cc12 -15.5%
Cc1ccc(-n2ncc3c(Nc4cccc(Cl)c4)ncnc32)c(C)c1 -7.83%
CCN(CC)c1cc(C)c2cc(NC(=O)/C=C/c3cc(OC)c(OC)c(OC)c3)ccc2n1 -17.9%
CC(C)c1nnc(N2C(=O)c3oc4ccccc4c(=O)c3C2c2ccccc2F)s1 (stereo unspecified) -2.13%
c1ccc([C@H]2CN3CCSC3=N2)cc1 -11.7% and -8.8%
CCc1ccc(CNC(=O)CCc2c(C)nn(-c3ccc(N4CCCC4)nn3)c2C)cc1 -12.9%
COc1cc(NC(=O)C2=CC(c3ccc(F)cc3)=NS(=O)(=O)N2C)cc(OC)c1OC -8.04%
CCN(Cc1ccccc1)C(=O)C1CCN(S(=O)(=O)c2ccc3c(c2)CCCN3C(C)=O)CC1 0.856%
O=C(CSc1nccn1Cc1ccc(F)cc1)Nc1nc2ccccc2s1 10.4%
Cc1cc2c(cc1S(=O)(=O)Nc1cccc(C#N)c1)OCC(=O)N2 -2.91%
O=C(Cn1ncc2c3ccccc3n(Cc3ccccc3F)c2c1=O)NCc1ccccc1Cl -11.6%
Cc1cccc(CC(=O)N2CC(=O)Nc3ccc(Br)cc3C2c2ccc(F)cc2)c1 (stereo unspecified) -24%
Cc1coc2c(C)c3oc(=O)c(CCC(=O)NCCc4ccccc4F)c(C)c3cc12 -8.26%
CC(C)N(C(=O)CSc1cn(CC(=O)N2CCCCCC2)c2ccccc12)C(C)C -9.42%
CCOC(=O)c1ccc(NC(=O)Cn2c(=O)cc(C)c3c(C)nn(-c4ccc(CC)cc4)c32)cc1 -6.26%
COc1ccc(CNC(=O)CN(C)S(=O)(=O)c2ccc3nc(C)sc3c2)cc1 -11.9%
COc1cccc(C(=O)Nc2ccccc2C(=O)OCc2cc(=O)n3c4c(sc3n2)CCCC4)c1 -33.9%
N#Cc1ccc(-c2cccs2)nc1SCc1ccc(Br)cc1 -4.3%
COc1ccc(-n2nc(C(=O)N3CCCCC3C)c3c4ccccc4n(C)c3c2=O)cc1Cl (stereo unspecified) -5.47%
CCOc1ccc(CCNC(=O)c2cn(-c3ccc(OC)cc3)c(=O)c3ccccc23)cc1OCC -13%
COc1cccc(/C=C/c2nc(C#N)c(N3CCC(C(N)=O)CC3)o2)c1 13.8%
COc1ccccc1Nc1sc(C(=O)c2ccc(F)cc2)c(N)c1S(=O)(=O)c1ccc(C)cc1 -2.14%
CN(Cc1ccccc1)C(=O)c1ccc(CSc2nc3cccnc3n2Cc2ccccc2F)cc1 0.0023%
COc1ccc(NC(=O)Cn2c(=O)n(CCC(=O)NCC3CCCO3)c(=O)c3cc(OC)c(OC)cc32)cc1 (stereo unspecified) -0.562%
Cc1cccc(NC(=O)Cn2c(=O)n(CCCCCC(=O)NCc3ccccc3)c(=O)c3sccc32)c1 -1.95%
CCOc1ccc(CNC(=O)C2CCN(C(=O)c3ccc(-n4ccc5ccccc54)s3)CC2)cc1 10.9%
COc1ccc(-c2cc3ncc(C)n3c(Nc3ncccc3C(N)=O)n2)cc1OC -10.8%
CCOC(=O)N1CCN(C(=O)c2ccc3c(c2)N(Cc2ccccc2F)C(=O)c2ccccc2S3(=O)=O)CC1 -8.25%
O=C(COc1ccccc1)NCC(c1ccc(Cl)cc1)N1CCCCC1 (stereo unspecified) -21.4%
O=C(CCCc1ccccc1)NC1CC(=O)N(c2cccc(F)c2)C1 (stereo unspecified) -11.8%
CCc1ccc(NC(=O)CSc2nc3c(c(=O)[nH]2)CN(Cc2ccc4c(c2)OCO4)CC3)cc1 20.8%
